This data set concerns the molecule itself. As to the kind of experiment: co-sedimentation; self-aggregation: 40 μM Tau isoform in 0.1 M NaCl, 20 mM ammonium acetate, 1.5 mM CaCl2, pH 7.0, with 10 μM heparin, 12 h at 37 °C; aggregates isolated by centrifugation, supernatant and pellet blotted with HT7; also electron microscopy.

B1: Full-length Tau isoform (Full Tau), containing all exons of the MAPT gene (natural protein)
chain: not shown
notes: human Tau isoform with all coding exons (+2, +3, +4A, +6, +8, +10), 776 amino acids, vector pRK-FullTau (synthetic cDNA, GenScript); No tag is mentioned; also called Full human Tau; MAPT-205; source: E. coli BL21, purified (boiling, ammonium sulfate precipitation, dialysis)
With B1, the binding result is listed as “binds”.

The values above are taken from PMC12578172, “Structure and function of Full-length Tau” (PLOS One, 2025).
